According to US12297265B2, “Antibody and use thereof” (SICHUAN KELUN-BIOTECH BIOPHARMACEUTICAL CO., LTD., priority 2018, dated 2025):
Marks after values point to notes of the source that are not given here.

Experiments:
human Claudin18.2 [1] = target: T1, human Claudin18.2 (Homo sapiens, UniProt P56856); experiment: FACS positive rate of NUGC-4 cells; type: binding; set-up: cell lines endogenously expressing human Claudin18.2; host or cells: NUGC-4 human gastric cancer cell line; settings: NUGC-4 cells endogenously expressing human Claudin18.2, FACS
Protocol: (§1) To determine binding affinity of the candidate antibodies to cell lines endogenously expressing human Claudin18.2, FACS analysis was performed to detect human Claudin18.2 expression level on NUGC-4 cells (purchased from Japan JCRB cell bank, catalog number: JCRB0834) which endogenously expresses human Claudin18.2. […] The binding affinity between candidate antibodies and NUGC-4 cells was then determined by Cellular ELISA following the same protocol as above.

NUGC-4 cells = experiment: NK cell mediated ADCC on NUGC-4 cells (LDH); type: cell-based, human; settings: NUGC-4 target cells, NK92MI-CD16a effector cells
Protocol: (§2) The steps were as follows: HEK293T-Claudin 18.2, L929-Claudin 18.2, KATOIII-Claudin 18.2 and NUGC-4 cells were harvested and centrifuged followed by adjustment of cell density. 1×10^4/well of cells were plated on a plate and incubated overnight. The medium was removed on the next day. NK92MI-CD16a cells (Huabo Biopharm) were centrifuged, resuspended in MEMA medium and adjusted to 1×10^6/mL, then 50 μL/well cells were added to the corresponding wells. […] For HEK293T-Claudin18.2, L929-Claudin18.2 and KATOIII-Claudin18.2 cells, ten antibody concentrations were tested, starting from 40 μg/mL with 5-fold dilution. For NUGC-4 cells, eleven antibody concentrations were tested, starting from 2 mg/mL with 5-fold dilution. 50 μL/well of the diluted antibodies were added to the corresponding wells and the reactions were left to stand in incubator at 37° C., 5% CO2 and incubated for 5.5h. Lysis buffer was then added to the positive control well and incubated for another 0.5h. 50 μL/well of Lactate Dehydrogenase (LDH) detection agent (DOJINDO LABORATORISE, CK12) were added to the wells and the absorbance at 490 nm were taken every 10 min on a plate reader (MD, SpectraMax M2). The results were imported into Graphpad Prism for curve fitting.

[2] = test system: KATOIII-Claudin 18.2 cells; experiment: NK cell mediated ADCC on KATOIII-Claudin 18.2 cells (LDH); type: cell-based; settings: KATOIII-Claudin 18.2 target cells, NK92MI-CD16a effector cells
Protocol: as §2

Ba/F3-Claudin 18.2 cells = experiment: ADCC activity on Ba/F3-Claudin 18.2 cells (NK-92MI_mCD16, CytoTox-Glo); type: cell-based; settings: Ba/F3-Claudin 18.2 target cells, NK-92MI_mCD16 effector cells, 6h
Protocol: In order to evaluate the ADCC activity, ten thousand Ba/F3-Claudin18.2 cells were cultured in 40 μl NK-92 media. Antibodies were serially diluted in 10 μl PBS. Fifty thousand NK-92MI_mCD16 cells in 50 μl NK-92 media were added and the reactions were incubated at 37° C. for 6h. 33.3 μl CytoTox-Glo (Promega, G9290) was added to each reaction […].

[3] = test system: HEK293T-Claudin 18.2 cells; experiment: NK cell mediated ADCC on HEK293T-Claudin 18.2 cells (LDH); type: cell-based; settings: HEK293T-Claudin 18.2 target cells, NK92MI-CD16a effector cells; Table 13
Protocol: as §2
The cell used was HEK293T-Claudin 18.2. The ADCC activity of antibody 2C6.9-hz21 on HEK293T-Claudin 18.2 is stronger than that of IMAB362.

human Claudin18.2 [4] = target: T1, human Claudin18.2; experiment: Cellular ELISA on NUGC-4 cells; type: binding; set-up: cell lines endogenously expressing human Claudin18.2; host or cells: NUGC-4 human gastric cancer cell line
Protocol: Human Claudin18.2 is a four transmembrane protein and has a complex structure. Cellular ELISA was thus carried out to maintain the structure of Claudin18.2. The stable cell line L929-Claudin 18.2 constructed in Example 1 were used for detection. Specifically, L929-Claudin 18.2 adherent cells were detached by 2 mM EDTA treatment. The cells were resuspended and adjusted to 2×10^5/mL and 100 μL of the resuspension was plated into 96 well plate and incubated overnight at 37° C. The next day, the media was removed, and the plate was washed with PBS once. 100 μL/well 4% formaldehyde was added to the plate. After 30 min of incubation at room temperature, formaldehyde was removed, followed by washing twice with PBS. […] The absorbance at 450 nm was read on a plate reader (MD, SpectraMax M2) and the results were subjected to curve fitting by Graphpad Prism.
as §1

B1: 1E9.2-hz11: humanized antibody of 1E9.2; VH SEQ ID NO: 29, VL SEQ ID NO: 33; heavy chain SEQ ID NO: 102, light chain 103 (antibody)
heavy: EVQLVESGGGLVKPGGSLRLSCAASGFSFSNSAMSWVRQAPGKGLEWVSTISSGDSYTYYADSVKGRFTISRDNAKNSLYLQMNSLRAEDTAVYYCARQGYGNALDYWGQGTLVTVSS[sequence of human IgG1 constant region omitted]
light: DIVMTQSPDSLAVSLGERATINCKSSQSLLNSGNQKNYLTWYQQKPGQPPKLLIYWSSTRESGVPDRFSGSGSGTDFTLTISSLQAEDFAVYYCQNDYYYPLTFGGGTKVEIKRTVAAPSVFIFPPSDEQLKSGTASVVCLLNNFYPREAKVQWKVDNALQSGNSQESVTEQDSKDSTYSLSSTLTLSKADYEKHKVYACEVTHQGLSSPVTKSFNRGEC
modifications: heavy chain amino acid sequence of humanized antibody 1E9.2 hz11; light chain amino acid sequence of humanized antibody 1E9.2 hz11
NUGC-4 cells tested positive for Claudin 18.2 (human Claudin18.2 [1]): 80% | Max. Cytotoxicity (NUGC-4 cells): 43% | Max. Cytotoxicity [2]: 64% | ADCC EC50 (Ba/F3-Claudin 18.2 cells): 0.041* μg/mL | Max killing rate (Ba/F3-Claudin 18.2 cells): 60.17* % | Max. Cytotoxicity [3]: 83% | OD450 (Max signal value) (human Claudin18.2 [4]): 0.5 OD450
